± gives the standard deviation of the averaged measurements. Over roughly 33,000 sequences, “E-score (dimensionless, -0.5 to 0.5)” has its median near -0.046; the highest 2% begin near 0.36. The list shows a part of the results.
Each sequence was assayed on T1, SpTbr T-box DNA-binding domain (GST fusion) (assay: PBM E-score of 8-mer (E-score (dimensionless, -0.5 to 0.5)); Tbr is Tbrain of the sea star Patiria miniata (Pm) or the sea urchin Strongylocentrotus purpuratus (Sp); higher = stronger binding preference; most listed sequences are background and not binding sites). Settings: the construct has about 5 more residues each side.
T1 sequence: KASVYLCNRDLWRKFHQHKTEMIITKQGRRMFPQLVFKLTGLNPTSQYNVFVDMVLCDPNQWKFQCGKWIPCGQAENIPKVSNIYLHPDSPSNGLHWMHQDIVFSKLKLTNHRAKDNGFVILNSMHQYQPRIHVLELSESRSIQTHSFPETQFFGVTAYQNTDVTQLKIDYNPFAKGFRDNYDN
In short: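 Expression of GST-fused Tbr T-box DNA-binding domains, each holding the full T-box plus roughly five flanking residues, was carried out in BL21 E. coli at 20 °C, with purification by glutathione affinity chromatography. Universal Agilent arrays made double-stranded by primer extension were incubated with the protein at 200 nM in PBS (pH 7.5), then scanned and quantified. All ungapped 8-mers were scored from probe intensities, and each received an enrichment E-score from the Universal PBM Analysis Suite, averaged over duplicate arrays.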

Row | Sequence | PBM E-score of 8-mer
1 | AAGGAAGG | -0.122 ± 0.043
2 | GCTGTCAA | 0.318 ± 0.049
3 | TCAGAACA | -0.14 ± 0.044
4 | CACTAGTC | 0.167 ± 0.017
5 | CCCACGGG | -0.28 ± 0.072
6 | ACCAGTGC | -0.0323 ± 0.048
7 | AAGTGAGT | 0.122 ± 0.065
8 | CGGTAAGA | -0.238 ± 0.025
9 | CAAGCTCC | -0.227 ± 0.027
10 | AACTGTGC | -0.0399 ± 0.045
11 | CATTGCGC | -0.0063 ± 0.0018
12 | GGCACCAC | 0.22 ± 0.051
13 | AATTCCCT | -0.119 ± 0.041
14 | TAAGTATA | -0.199 ± 0.043
15 | ATAGACCA | -0.202 ± 0.023
16 | TCCCCAGA | -0.129 ± 0.009
17 | ATCACCGA | 0.125 ± 0.024
18 | GCGAGTAA | 0.139 ± 0.034
19 | AATATATG | -0.236 ± 0.018
20 | AGTACTCC | -0.202 ± 0.0054
21 | CGTCAGCA | 0.127 ± 0.045
22 | ACACGGGC | -0.0843 ± 0.039
23 | AATTTTCT | -0.327 ± 0.098
24 | AACAGTCT | -0.139 ± 0.005

Row | Sequence | PBM E-score of 8-mer
25 | GATCTAAC | -0.0752 ± 0.046
26 | ATAAATCC | -0.193 ± 0.015
27 | CCCGATTC | -0.329 ± 0.011
28 | AACAAAGT | 0.109 ± 0.0069
29 | ATTTGAAC | -0.161 ± 0.0035
30 | ACACTGAC | 0.197 ± 0.0044
31 | CCCGCCAC | 0.163 ± 0.064
32 | AAAGGGCG | 0.0609 ± 0.033
33 | TACGCCAA | -0.0586 ± 0.029
34 | CTTCGTCA | 0.253 ± 0.02
35 | CGATACAC | 0.123 ± 0.0031
36 | CGCCGAGA | 0.0271 ± 0.022
37 | ACCGTTCG | 0.124 ± 0.052
38 | CATCAGCA | -0.0609 ± 0.0023
39 | CGTGGCTA | -0.0539 ± 0.033
40 | GATCCATC | -0.126 ± 0.022
41 | CATTGGGA | -0.0903 ± 0.027
42 | AATCAATA | -0.154 ± 0.026
43 | ACGAAGAC | 0.00754 ± 0.041
44 | CGCTCTGA | -0.162 ± 0.045
45 | CCCCGGTC | -0.17 ± 0.029
46 | CCCCTCCG | 0.119 ± 0.066
47 | AACCAATA | -0.0941 ± 0.053
48 | AAGTGTTG | 0.422 ± 0.02

Row | Sequence | PBM E-score of 8-mer
49 | AACGAACC | 0.0448 ± 0.0011
50 | TACAGTCA | -0.0793 ± 0.024
51 | TGCCCCCA | -0.217 ± 0.088
52 | CCAGTTGC | 0.104 ± 0.014
53 | ATCATTAA | -0.186 ± 0.0045
54 | TGAGAGCA | 0.0873 ± 0.054
55 | ACAGCGAA | -0.139 ± 0.031
56 | CAGTGTTC | 0.0165 ± 0.024
57 | AAATCTGT | 0.165 ± 0.044
58 | AAAATAGT | -0.102 ± 0.11
59 | ATCTCGTC | 0.235 ± 0.024
60 | CCACTGCG | 0.0281 ± 0.049
61 | AGCCCAAG | -0.167 ± 0.068
62 | GAGCGGCC | -0.0448 ± 0.082
63 | ACAAGCGA | 0.132 ± 0.024
64 | CCTGATAC | -0.265 ± 0.017
65 | GATCTCTA | -0.103 ± 0.024
66 | CCTTCGAC | -0.0453 ± 0.042
67 | ACTTAACG | 0.237 ± 0.079
68 | CACGCTGC | 0.19 ± 0.028
69 | CAAGAGGC | 0.0193 ± 0.016
70 | AGGTCCAC | -0.144 ± 0.13
71 | AAAGCGGT | -0.113 ± 0.0042
72 | ATGTTCGC | 0.193 ± 0.0068

Row | Sequence | PBM E-score of 8-mer
73 | CACCTATG | 0.427 ± 0.011
74 | ACCTGTCA | 0.3306 ± 0.0014
75 | GCGTGCTA | 0.21 ± 0.019
76 | CTGCTCTA | -0.167 ± 0.047
77 | ATAGATGG | -0.223 ± 0.052
78 | CATGTTCC | -0.173 ± 0.085
79 | ACACCTAG | 0.444 ± 0.0087
80 | CGGCACGA | -0.153 ± 0.027
81 | CAATTATA | -0.239 ± 0.0056
82 | CGCCTTTA | 0.166 ± 0.095
83 | CGGTAGTA | -0.0696 ± 0.0025
84 | GCTTGTGA | 0.202 ± 0.074
85 | CCAGTCTA | -0.131 ± 0.024
86 | GCTGCCTA | -0.101 ± 0.039
87 | ACGGGTGC | 0.188 ± 0.0078
88 | AAATCTAC | -0.0549 ± 0.018
89 | CTTCTACA | -0.196 ± 0.0035
90 | CGCCAACA | 0.253 ± 0.0096
91 | CTTGTAAA | 0.108 ± 0.095
92 | GCAGGGAA | -0.0422 ± 0.065
93 | AAAACCGT | 0.0214 ± 0.018
94 | AGCTTCCT | -0.262 ± 0.02

— the supplement of paper PMC4166925
